Source: the supplement of paper PMC11417369
± gives the standard deviation of the averaged measurements. The list shows a part of the results.

These sequences were tested on PfAP2-LT AP2 domain (GST-tagged) (assay: gcPBM binding intensity (ln(normalized median fluorescence intensity)); higher = stronger DNA binding).
Outline: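 Each value is the highest Masliner-normalised natural-log median intensity across replicate spots of either orientation of a probe. The probes were primer-extended double-stranded 36-bp intergenic genomic sequences on an Agilent 4 × 180k array, alongside negative controls, exposed for 1 h to GST-tagged P. falciparum DNA-binding domains expressed in E. coli. Bound protein was picked up with Alexa488 anti-GST antibody and scanned at 488 nm.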

| Sequence | gcPBM binding intensity (ln) |
| --- | --- |
| TTATATATATATATATATATATATATATATATAAAT [GTGCAC_negctrl_site126] | 9.15 ± 0.29 |
| CATTATGTACAAAAAGTGCAATATATATTAACACTG | 8.79 ± 0.36 |
| AACAAAATAAGAAAACGTACAAATGTTTCAAATTCT [XGTACX_site1544] | 8.82 ± 0.54 |
| TATGTATATTCTTTCAGTACACATAATGTTGTCATA [XGTACX_site8845] | 8.78 ± 0.42 |
| AAAATGTTATTGGAAAGTACAAAAAAAATTATATAA [XGTACX_site4074] | 8.62 ± 0.35 |
| TTAATATATATATATATATATATATTTTTATTTTTT [CACACA_negctrl_site763] | 8.96 ± 0.31 |
| TGTATTAACAAAAAGGTGCGGATATATATAAAAAAT [GTGCAC_site9473] | 8.99 ± 0.46 |
| ATAAAACGTACAATGGTGCATATAAATAATATATAT [GTGCAC_site9960] | 9.12 ± 0.45 |
| CATATATAGATATATACACACATATATAAATAAATA [CACACA_site6759] | 9.15 ± 0.4 |
| TACATACATACATACACACACACATATATATACATA [CACACA_site853] | 10.1 ± 0.23 |
| TAATATCTAAAAAATATATTTTTTATTTTTTATTAA [CACACA_negctrl_site510] | 8.21 ± 0.54 |
| ATATCATTAAAAGGATGTACATATGTGTATACAATA [XGTACX_site871] | 8.94 ± 0.42 |
| TAAAAAATATAAACTGCACACACAAAAAAAAAAGAG [CACACA_site8379] | 9.41 ± 0.36 |
| AATTTAAAATAATATTGTACTTAGATATAAATATGA [XGTACX_site4198] | 8.29 ± 0.41 |
| ATGGTACACAAATATACATGCAATAATAAAAAAAAA [TGCATGCA_site879] | 8.96 ± 0.47 |
| TTTTTATTACATAATTAAAAAAAATAATAAAATAAA [XGTACX_negctrl_site249] | 8.03 ± 0.55 |
| TGCAGTCTGGAGAAAAGTACATAGTATCTGGTAACC [XGTACX_site2019] | 8.88 ± 0.45 |
| TTTTTTTTTTAATTCGCACACTGTCTTCATACAATT [CACACA_site1379] | 9.15 ± 0.65 |
| ATATATATATATTTATGTACTTAATAATTTATTCAC [XGTACX_site7301] | 8.97 ± 0.38 |

| Sequence | gcPBM binding intensity (ln) |
| --- | --- |
| TCATTTCACGGACACACACACACAATATATTTCCTT [CACACA_site6023] | 9.79 ± 0.29 |
| AAAAAATATTTTTACAGTACATATATATAAAATGTT [XGTACX_site3215] | 8.61 ± 0.5 |
| TAACAAAGGAAAGATATACACACGTATGCATGATAA [CACACA_site2520] | 9.12 ± 0.4 |
| CATTAATATATATATACATGCACGTTTTAAAAAAAA [TGCATGCA_site875] | 8.65 ± 0.36 |
| TAATTATGCAGACACACACACACACGCAACTAAAAA [CACACA_site7253] | 10 ± 0.3 |
| ATGGGAATATAATTATGTACATATAAAAATTATAAA [XGTACX_site5336] | 8.76 ± 0.42 |
| TGTATGAAATATATTACACACATATATAATATATAT [CACACA_site793] | 8.95 ± 0.3 |
| GTGTAAATAAGGATATATAACAATCAACAAAACATA [CACACA_negctrl_site1759] | 9.01 ± 0.54 |
| ATATTTTTCAAACATCGTACATTATGAGTTAAAATT [XGTACX_site584] | 8.44 ± 0.49 |
| ATACACAAAATTATTAAATCAATAAATATATGGTTT [CACACA_negctrl_site353] | 8.69 ± 0.49 |
| AAAATACATAAATGTTCACACATTAAAAAGCAGAAG [CACACA_site5346] | 9.03 ± 0.4 |
| TATGTCAGATGAAAGGGTACATAATATAATATATTT [XGTACX_site8062] | 8.65 ± 0.41 |
| TTTATAAAGAAACACACACACATGTGAACATAAAAA [CACACA_site1908] | 9.46 ± 0.25 |
| CATAACATAAAATAGGTGCACAAAAATTGTAATTGA | 9.29 ± 0.62 |
| TTATAAATGAATAAATGTACAAAATATATATATATA [XGTACX_site8829] | 9.01 ± 0.34 |
| CACACCCACCAACACACACACACACCCACCCATATA [CACACA_site366] | 10.3 ± 0.12 |
| ATTTTTATTTGTTACGCATGCATAAAAGTGCATACT [TGCATGCA_site547] | 8.85 ± 0.35 |
| TTCAGTGTATACATATGTACATATATATATATATAT [XGTACX_site1621] | 9.835 ± 0.092 |
| TTGTAATATATGTATTGTACGCATATAACAATTATT [XGTACX_site3652] | 8.68 ± 0.33 |

| Sequence | gcPBM binding intensity (ln) |
| --- | --- |
| TATTATTATCTTACCACACACAATGTACGAAAAGAT [CACACA_site352] | 9.01 ± 0.31 |
| AAATTAAAAAGACATTCACACATTTTCATCTTAACA [CACACA_site5221] | 8.54 ± 0.47 |
| TAACATATAATATTCACACACATATATATATTATAT [CACACA_site988] | 9.24 ± 0.38 |
| AAACATATATATATTATATATATATATATATATATG [GTGCAC_negctrl_site182] | 9.02 ± 0.17 |
| TGTAGGTATTATTATACACACATAAAAAAAAAAAAA [CACACA_site3598] | 8.88 ± 0.45 |
| TAAAATATTATAAAATGTACAAAACATATAAATATA [XGTACX_site5315] | 8.72 ± 0.45 |
| TATATAAACATATAAACATGCAATATATATATGTTA [TGCATGCA_site765] | 8.73 ± 0.37 |
| GGAAAAAAACTTATGAGTACACATAAATATAGCACA [XGTACX_site6686] | 8.91 ± 0.42 |
| AAAAATATATAACAAAGTACATATATATTTAGTAAT [XGTACX_site8791] | 8.83 ± 0.51 |
| AAAAAAATTAAATCAAGTACTCATTCTTAAATTATA [XGTACX_site1274] | 8.32 ± 0.42 |
| ATATTGATACATCCAATACACACTACATATAATGAT [CACACA_site1874] | 8.99 ± 0.35 |
| TATATTTTCTATAGGTGTACTCCACATGCGGTGTTA [XGTACX_site7471] | 8.86 ± 0.56 |
| AAACATCTTTACAACGTCCCTCCTTTTTTATGTACC [GTGCAC_negctrl_site528] | 8.94 ± 0.61 |
| AATATATATAAATATTGTACAAAAATATATATATAT [XGTACX_site2910] | 9.07 ± 0.34 |
| ATATATGATGTAAAAGCACACATATATATATATATA [CACACA_site9330] | 9.82 ± 0.27 |
| TCCCTCTTTTTATTCTCACACACGTTTATATATAAA [CACACA_site1644] | 9.21 ± 0.35 |
| ATTTTATTCTAAAAAGGTACACATATTATTTTATGA [XGTACX_site7233] | 8.43 ± 0.52 |
| TAAATAAGGAAGGAAACACACATTAAAAAATAAATA [CACACA_site618] | 8.84 ± 0.59 |
| AACAGAAGCACATACACACACTCAAAAAAAAAAAAA [CACACA_site5652] | 9.37 ± 0.53 |
